Results taken from the supplement of paper PMC8728848.
Some of the results follow.

How the values were obtained:
Test in all cases: glycan array binding signal (z-score within array); higher = stronger binding
Conditions in all cases: glycan notation: IUPAC condensed, linker removed
[1] = biological target: Man(a1-2)Man(a1-6)[Man(a1-3)]Man(a1-6)[Man(a1-2)Man(a1-2)Man(a1-3)]Man
Summary of the method: (§1)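 The binding signal is a Z-score computed within each array. Data were drawn from 3228 arrays in the Consortium for Functional Glycomics database, restricted to those with a known protein sequence. Scores were averaged over arrays of the same protein sequence at different concentrations or buffers, and over linkers, and negative values can be taken as non-binding.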

[2] = biological target: Man(a1-2)Man(a1-6)[Man(a1-3)]Man(a1-6)[Man(a1-2)Man(a1-2)Man(a1-3)]Man(b1-4)GlcNAc(b1-4)GlcNAc
Summary of the method: as §1

Man(a1-3)[Man(a1-6)]Man = biological target: Man(a1-3)[Man(a1-6)]Man
Summary of the method: as §1

[3] = biological target: Man(a1-3)[Man(a1-6)]Man(a1-6)[Man(a1-2)Man(a1-3)]Man(b1-4)GlcNAc(b1-4)GlcNAc
Summary of the method: as §1

[4] = biological target: Man(a1-3)[Man(a1-6)]Man(a1-6)[Man(a1-3)]Man
Summary of the method: as §1

[5] = biological target: Man(a1-3)[Man(a1-6)]Man(a1-6)[Man(a1-3)]Man(b1-4)GlcNAc(b1-4)GlcNAc
Summary of the method: as §1

[6] = biological target: Man(a1-3)[Man(a1-6)]Man(b1-4)GlcNAc(b1-4)GlcNAc
Summary of the method: as §1

Man(a1-6)Man = biological target: Man(a1-6)Man
Summary of the method: as §1

Man(b1-4)GlcNAc = biological target: Man(b1-4)GlcNAc
Summary of the method: as §1

Neu5Ac(a2-3)Gal = biological target: Neu5Ac(a2-3)Gal
Summary of the method: as §1

[7] = biological target: Neu5Ac(a2-3)Gal(b1-3)GalNAc
Summary of the method: as §1

[8] = biological target: Neu5Ac(a2-3)Gal(b1-3)GalNAc(b1-3)Gal(a1-4)Gal(b1-4)Glc
Summary of the method: as §1

[9] = biological target: Neu5Ac(a2-3)Gal(b1-3)GalNAc(b1-3)Gal(b1-4)GlcNAc
Summary of the method: as §1

[10] = biological target: Neu5Ac(a2-3)Gal(b1-3)GalNAc(b1-4)[Neu5Ac(a2-3)]Gal(b1-4)Glc
Summary of the method: as §1

[11] = biological target: Neu5Ac(a2-3)Gal(b1-3)GalNAc6S
Summary of the method: as §1

[12] = biological target: Neu5Ac(a2-3)Gal(b1-3)GlcNAc
Summary of the method: as §1

[13] = biological target: Neu5Ac(a2-3)Gal(b1-3)GlcNAc(b1-3)Gal(b1-3)GlcNAc
Summary of the method: as §1

[14] = biological target: Neu5Ac(a2-3)Gal(b1-3)GlcNAc6S
Summary of the method: as §1

[15] = biological target: Neu5Ac(a2-3)Gal(b1-3)[Fuc(a1-4)]GlcNAc
Summary of the method: as §1

[16] = biological target: Neu5Ac(a2-3)Gal(b1-3)[Fuc(a1-4)]GlcNAc(b1-3)Gal(b1-3)[Fuc(a1-4)]GlcNAc
Summary of the method: as §1

[17] = biological target: Neu5Ac(a2-3)Gal(b1-3)[Fuc(a1-4)]GlcNAc(b1-3)Gal(b1-4)[Fuc(a1-3)]GlcNAc
Summary of the method: as §1

[18] = biological target: Neu5Ac(a2-3)Gal(b1-3)[Neu5Ac(a2-3)Gal(b1-4)]GlcNAc
Summary of the method: as §1

[19] = biological target: Neu5Ac(a2-3)Gal(b1-3)[Neu5Ac(a2-6)]GalNAc
Summary of the method: as §1

Neu5Ac(a2-3)Gal(b1-4)Glc = biological target: Neu5Ac(a2-3)Gal(b1-4)Glc
Summary of the method: as §1

[20] = biological target: Neu5Ac(a2-3)Gal(b1-4)GlcNAc
Summary of the method: as §1

[21] = biological target: Neu5Ac(a2-3)Gal(b1-4)GlcNAc(b1-2)Man(a1-3)[GlcNAc(b1-2)Man(b1-4)GlcNAc(b1-2)Man(a1-6)]Man(b1-4)GlcNAc(b1-4)GlcNAc
Summary of the method: as §1

[22] = biological target: Neu5Ac(a2-3)Gal(b1-4)GlcNAc(b1-2)Man(a1-3)[Neu5Ac(a2-6)Gal(b1-4)GlcNAc(b1-2)Man(a1-6)]Man(b1-4)GlcNAc(b1-4)GlcNAc
Summary of the method: as §1

[23] = biological target: Neu5Ac(a2-3)Gal(b1-4)GlcNAc(b1-3)Gal(b1-3)GlcNAc
Summary of the method: as §1

[24] = biological target: Neu5Ac(a2-3)Gal(b1-4)GlcNAc(b1-3)Gal(b1-4)GlcNAc
Summary of the method: as §1

[25] = biological target: Neu5Ac(a2-3)Gal(b1-4)GlcNAc(b1-3)Gal(b1-4)GlcNAc(b1-3)Gal(b1-4)GlcNAc
Summary of the method: as §1

[26] = biological target: Neu5Ac(a2-3)Gal(b1-4)GlcNAc(b1-3)Gal(b1-4)[Fuc(a1-3)]GlcNAc
Summary of the method: as §1

[27] = biological target: Neu5Ac(a2-3)Gal(b1-4)GlcNAc(b1-3)GalNAc
Summary of the method: as §1

[28] = biological target: Neu5Ac(a2-3)Gal(b1-4)GlcNAc(b1-6)[Gal(b1-3)]GalNAc
Summary of the method: as §1

[29] = biological target: Neu5Ac(a2-3)Gal(b1-4)GlcNAc(b1-6)[Neu5Ac(a2-3)Gal(b1-3)]GalNAc
Summary of the method: as §1

[30] = biological target: Neu5Ac(a2-3)Gal(b1-4)GlcNAc6S
Summary of the method: as §1

[31] = biological target: Neu5Ac(a2-3)Gal(b1-4)[Fuc(a1-3)]GlcNAc
Summary of the method: as §1

[32] = biological target: Neu5Ac(a2-3)Gal(b1-4)[Fuc(a1-3)]GlcNAc(b1-3)Gal
Summary of the method: as §1

[33] = biological target: Neu5Ac(a2-3)Gal(b1-4)[Fuc(a1-3)]GlcNAc(b1-3)Gal(b1-4)GlcNAc
Summary of the method: as §1

B1: Flo5 (Saccharomyces cerevisiae), P38894 (protein)
chain: MGSSHHHHHHSSGLVPRGSHMSGATEACLPAGQRKSGMNINFYQYSLKDSSTYSNAAYMAYGYASKTKLGSVGGQTDISIDYNIPCVSSSGTFPCPQEDSYGNWGCKGMGACSNSQGIAYWSTDLFGFYTTPTNVTLEMTGYFLPPQTGSYTFSFATVDDSAILSVGGSIAFECCAQEQPPITSTNFTINGIKPWDGSLPDNITGTVYMYAGYYYPLKVVYSNAVSWGTLPISVELPDGTTVSDNFEGYVYSFDDDLSQSNCTIPDPSIH
**Q.** What does the source list for B1?
**A.** glycan array binding signal (z-score) [1]: -0.132; glycan array binding signal (z-score) [2]: -0.205; glycan array binding signal (z-score) (Man(a1-3)[Man(a1-6)]Man): 0.724; glycan array binding signal (z-score) [3]: -0.177; glycan array binding signal (z-score) [4]: 3.11; glycan array binding signal (z-score) [5]: 0.132; glycan array binding signal (z-score) [6]: -0.11; glycan array binding signal (z-score) (Man(a1-6)Man): -0.114; glycan array binding signal (z-score) (Man(b1-4)GlcNAc): -0.19; glycan array binding signal (z-score) (Neu5Ac(a2-3)Gal): -0.181; glycan array binding signal (z-score) [7]: -0.203; glycan array binding signal (z-score) [8]: -0.126; glycan array binding signal (z-score) [9]: -0.218; glycan array binding signal (z-score) [10]: -0.152; glycan array binding signal (z-score) [11]: 0.434; glycan array binding signal (z-score) [12]: -0.262; glycan array binding signal (z-score) [13]: 0.525; glycan array binding signal (z-score) [14]: -0.161; glycan array binding signal (z-score) [15]: -0.153; glycan array binding signal (z-score) [16]: -0.223; glycan array binding signal (z-score) [17]: -0.286; glycan array binding signal (z-score) [18]: -0.169; glycan array binding signal (z-score) [19]: -0.165; glycan array binding signal (z-score) (Neu5Ac(a2-3)Gal(b1-4)Glc): -0.16; glycan array binding signal (z-score) [20]: -0.167; glycan array binding signal (z-score) [21]: -0.19; glycan array binding signal (z-score) [22]: -0.182; glycan array binding signal (z-score) [23]: -0.073; glycan array binding signal (z-score) [24]: -0.114; glycan array binding signal (z-score) [25]: 0.027; glycan array binding signal (z-score) [26]: -0.133; glycan array binding signal (z-score) [27]: 0.01; glycan array binding signal (z-score) [28]: -0.196; glycan array binding signal (z-score) [29]: -0.244; glycan array binding signal (z-score) [30]: -0.131; glycan array binding signal (z-score) [31]: -0.106; glycan array binding signal (z-score) [32]: -0.199; glycan array binding signal (z-score) [33]: 0.203
